Where “and” joins values, the source holds several entries; their conditions need not be identical. Equal entries are not always repeated.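 Exposure lasted 48 hours, with cells grown in 96-well plates and compounds tested at five concentrations. GI50: concentration for 50% inhibition of growth. TGI is the concentration that stops growth completely.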
System: NCI-H322M lung
Test: growth of human tumour cells (NCI), 48 h

C#CCOc1cccc(Nc2ncc3ncn(C4CCN(C(=O)CCl)C4)c3n2)c1 (stereo unspecified)
GI50: > 62.5 µM
TGI: > 62.5 µM

O=C(O)CCCc1ccc2c(c1)CC1(C2)Cc2ccc(CCCC(=O)O)cc2C1
TGI: > 100 µM

C=C1C(=O)O[C@H]2[C@H]([C@H](C)CCCC(C)=O)O[C@H]([C@@]3(C)CCC(=O)O3)C[C@@H]12
TGI: > 100 µM

CCOC(=O)CCC(C(=O)OCC)n1nnc2cc(Nc3c(C)[n+]([O-])c4ccc(Cl)cc4[n+]3[O-])ccc21 (stereo unspecified)
TGI: > 100 µM

CCOC(=O)/C(C#N)=C(N)/C(=N\Nc1cccc(C(F)(F)F)c1)C(=O)OCC
TGI: > 100 µM

N#Cc1c(C#N)c(-c2ccccc2)n(/N=C\c2ccccc2)c1N
TGI: > 100 µM

O=C(O)Cc1cc(=O)[nH]c2c1C(=O)CCC2
TGI: > 100 µM

COc1ccc(C2NC(=O)Nc3c2c(=O)oc2c3ccc3ccccc32)cc1 (stereo unspecified)
TGI: > 100 µM

CCOC(=O)C1=C(C)N(c2ccc(C)cc2)C2(O)C=CC(=O)C3=C(O)c4ccccc4C(=O)C312 (stereo unspecified)
TGI: > 100 µM

S=C(Nc1ccc2c(c1)Cc1ccccc1-2)Nc1ccc2c(c1)Cc1ccccc1-2
TGI: > 100 µM

CCOC(=O)NC(=O)c1cn(C2OC(CO)C(O)C2O)c(=O)[nH]c1=O (stereo unspecified)
TGI: > 100 µM

O=C1C2=C(c3ccccc31)C(c1ccc(Cl)cc1)NC(=S)N2 (stereo unspecified)
TGI: 48.2 µM

CCCCN(CCCC)C(=O)C(=O)CC(=O)/C=C/c1ccccc1
TGI: > 100 µM

O=c1[nH]cnc2nc(-c3ccc(N(CCCl)CCCl)cc3)[nH]c12
GI50: 97.4 µM
TGI: > 100 µM

C/C=C/C(=O)[O-].N.N.N.N.N.[Co+3].[O-][Cl+3]([O-])([O-])[O-]
GI50: > 100 µM
TGI: > 100 µM

CS(=O)(=O)Nc1cc(-c2ccc3ncnc(Nc4cccc(Cl)c4F)c3c2)cnc1Cl
GI50: 2.41 µM
TGI: 11.2 µM

COC(=O)C1=C(c2cc(OC)c(OC)c(OC)c2)O[C@H](c2ccc3c(c2)OCO3)[C@H]1COC(C)=O
TGI: > 100 µM

CC(=O)OCC(OC(C)=O)C(OC(C)=O)C(OC(C)=O)C(=O)CNn1c(-c2ccccc2Cl)nc2ccc(Br)cc2c1=O (stereo unspecified)
TGI: > 100 µM

O=c1/c(=C/c2ccc(-c3ccc(Cl)cc3Cl)o2)sc2n1[C@@H](c1ccc3c(c1)OCO3)C=C(c1cc(F)c(Cl)cc1Cl)N=2
TGI: > 100 µM

COc1cc(C(=O)C/C(CCC(=O)Nc2ccc(Cl)cc2Cl)=N/Nc2nnc(C)n2N)ccc1O
TGI: > 100 µM

O=C(NC/C=C/Br)NC1CCNc2ccccc21 (stereo unspecified)
TGI: > 100 µM

CSC1NNC2(C(=O)N1)c1ccccc1-c1ccccc12 (stereo unspecified)
TGI: > 10 µM

CCCNc1cccc(-n2ncc3c(N/N=C/c4ccncc4)ncnc32)c1
GI50: > 25 µM
TGI: > 25 µM

c1ccc(CNc2ncnc3n[nH]nc23)cc1
TGI: > 100 µM

COC(=O)c1c(C#C[Si](C)(C)C)c(C#C[Si](C)(C)C)c(C#C[Si](C)(C)C)c(C#C[Si](C)(C)C)c1C(=O)OC
TGI: > 100 µM

CC(C)(O)CCC(O)C(C)(O)C1CCC2(O)C3=CC(=O)C4(O)CC(O)C(O)CC4(C)C3CCC12C (stereo unspecified) (tested in a mixture with another compound)
TGI: > 100 µM

Cc1ccc(S(=O)(=O)c2ccsc2N)cc1
GI50: > 100 µM
TGI: > 100 µM

COc1ccc(S(=O)(=O)n2c3ccccc3n3ncc(-c4nnc(C)o4)c23)cc1
GI50: 0.664 µM
TGI: > 100 µM

COc1ccc(NS(=O)c2cccc(C)c2)cc1 (stereo unspecified)
TGI: > 100 µM

COc1ccc(/C=C/c2cnc3ccccc3n2)cc1OC
TGI: > 100 µM

C=C1C[C@@H]2[C@H](CC[C@]3(C)C(=O)CC[C@@H]23)[C@@]2(C)C=CC(=O)C=C12
GI50: 64 µM
TGI: > 100 µM

COc1ccc(C(C)NNC(=O)c2ccncc2)cc1F (stereo unspecified)
TGI: > 100 µM

N#Cc1c(-c2ccc(Cl)cc2)cc(-c2nc3ccccc3[nH]2)nc1N
TGI: 69.8 µM

Oc1ccc2ccccc2c1OCc1nnc(CCCCCCCCc2nnc(COc3c(O)ccc4ccccc34)o2)o1
TGI: > 100 µM

Brc1ccc2c(c1)c(-c1nc(-c3c[nH]c4ncccc34)cs1)cn2CCCN1CCCCC1
GI50: 1.7 µM
TGI: 3.15 µM

O=C1OC2C=CC1C1(CCOC1=O)C2 (stereo unspecified)
TGI: > 100 µM

Cc1ccc(SCC(O)=C2C(=O)CCCC2=O)cc1
TGI: > 100 µM

O=C(Nc1nc(C23CC4CC(CC(C4)C2)C3)cs1)c1cc2cc([N+](=O)[O-])ccc2oc1=O
TGI: > 100 µM

O=C(C=P(c1ccccc1)(c1ccccc1)c1ccccc1)c1ccc(-c2ccc(F)cc2F)cc1
TGI: 9.32 µM

COc1cc(S(=O)(=O)N/N=C/c2cc(Br)c(O)c(OC)c2)c(OC)cc1NC(C)=O
TGI: > 100 µM

Cc1cc(C)c2c(c1)CC1(Cc3c(C)cc(C)cc3C1=O)C2=O (stereo unspecified)
TGI: > 100 µM

COc1cccc(C2CC(=O)c3cccn32)c1 (stereo unspecified)
TGI: > 100 µM

NC(=S)N/N=C\c1nccc2c(C(F)(F)C(F)(F)C(F)(F)F)cccc12
GI50: 0.0405 µM
TGI: 2.08 µM

COC(=O)C(C(=O)OC)C1CC(=O)c2c(Br)sc(Br)c21 (stereo unspecified)
TGI: 41.3 µM

Cc1[nH]n(-c2ccccc2)c(=O)c1C(=O)c1ccccc1
GI50: > 25 µM
TGI: > 25 µM

Cc1ccc([N+](=O)[O-])cc1NC(=O)C(=O)C1CCC2=C(Sc3ccccc3N2)C1=O (stereo unspecified)
TGI: > 100 µM

CC(C)CC(NC(=O)C(COc1ccc([N+](=O)[O-])cc1)Cc1ccccc1)C(=O)Nc1ccccc1 (stereo unspecified)
TGI: > 100 µM

O=S(=O)(O)c1ccc(Nc2ccnc3cc(Cl)ccc23)cc1
TGI: > 100 µM

C[C@]12CC[C@H]3[C@@H](CCC4=C[C@@H](OC5OCC(OC6OC(CO)C(O)C(O)C6O)C(O)C5O)CC[C@@]43C=O)[C@@]1(O)CCC2C1=CC(=O)OC1 (stereo partly specified)
TGI: 5.46 µM

FC(F)(F)c1cc(NC2=NCCN=C(Nc3cc(C(F)(F)F)cc(C(F)(F)F)c3)SS2)cc(C(F)(F)F)c1
GI50: 8.82 µM
TGI: 32.3 µM

CNC(C)Cc1ccc(O)cc1 (stereo unspecified)
TGI: > 100 µM

Cc1ccc(S(=O)(=O)N2CCN(CCO)CCN(S(=O)(=O)c3ccc(C)cc3)CCN(CCO)CC2)cc1
TGI: 29.7 µM

CC[C@H](C)[C@H](NC(=O)c1nccn1C)C(=O)N(C)[C@H](C[C@@H](OC(C)=O)c1nc(C(=O)N[C@@H](Cc2ccccc2)C[C@H](C)C(=O)OC)cs1)C(C)C
GI50: 2.35 µM
TGI: > 33.3 µM

CC1(O)C(=O)OC2CC([C@]3(O)CCC4[C@@H]5C[C@H]6O[C@]67[C@@H](O)C=CC(=O)[C@]7(C)C5CC[C@@]43C)C1(C)C2 (stereo partly specified)
TGI: > 100 µM

O=C(Nc1ccccc1C(=O)O)C(=O)C(C(=O)c1ccccc1-c1ccccc1)C1OC(=O)c2ccccc21 (stereo unspecified)
TGI: 29.9 µM

CC1(C)CC(=O)C(=CN2C(=O)CNC2=S)C(=O)C1
TGI: > 100 µM

C=C(C)[C@@H]1CC[C@]2(C)[C@H](CC=C3[C@@H]4[C@H](C)[C@@H](C)CC[C@]4(CO)CC[C@]32C)[C@@]1(C)CCCN
GI50: 1.74 µM
TGI: 6.38 µM

COc1cc2c3c(c1OC)Oc1ccc(cc1)CC1c4c(cc(OC)c(OC)c4Oc4ccc(cc4)CC3N(C)CC2)CCN1C (stereo unspecified)
TGI: 50 µM

C=CCn1c(=O)c2ccccc2[n+]2c(-c3cccc([N+](=O)[O-])c3)csc12
TGI: > 100 µM

C=C1C(=O)O[C@H]2[C@H]1CC/C(COC(=O)/C=C/c1c[nH]c3ccccc13)=C\CC[C@@]1(C)O[C@@H]21
GI50: 1.73 µM
TGI: 3.61 µM

CCCCCCCCC[n+]1cccc(C2C(C(=O)OCC)=C(C)NC(C)=C2C(=O)OCC)c1
TGI: 30.8 µM

CCN(CC)CCOc1nc2cc(OC)c(OC)cc2c2c1-c1ccc(OC)cc1C2=O
GI50: 17.6 µM
TGI: 31.4 µM

COc1cccc2c1[C@]1(O)C(O)CCCC21 (stereo partly specified)
TGI: > 100 µM

O=C(NCc1cccnc1)C(=O)NCc1cccnc1
TGI: > 100 µM

CC(C)(F)C[C@H](N[C@@H](c1ccc(-c2ccc(S(C)(=O)=O)cc2)cc1)C(F)(F)F)C(=O)NC1(C#N)CC1
GI50: > 55 µM and 42.6 µM
TGI: > 100 µM

CC1(C)N=C(N)N=C(N)N1c1ccc(OCCCOc2ccccc2)c(Cl)c1
TGI: 16 µM

CC1(C)N=C(N)N=C(N)N1c1ccc(OCCCCNC(=O)c2ccc(S(=O)(=O)F)cc2)c(Cl)c1
GI50: 8.14 µM
TGI: > 100 µM

Nc1ccc(-c2nc3ccccc3s2)cc1
TGI: > 80.9 µM

COC(=O)[C@@H]1O[C@]12[C@@H](CO[Si](C)(C)C(C)(C)C)O[C@@H](n1cc(C)c(=O)[nH]c1=O)[C@@H]2O[Si](C)(C)C(C)(C)C
TGI: 44.3 µM

C=C(C(=O)OC)[C@H]1CC/C(C)=C/CC/C(C)=C/CC[C@@]2(C)O[C@@H]2C1
TGI: > 100 µM

CC(=O)[C@H]1CCC2[C@@H]3CC=C4C(O)C(OS(=O)(=O)O)CC[C@]4(C)C3CC[C@@]21C (stereo partly specified)
TGI: > 100 µM

COc1cc(/C=C/c2cc(/C=C/c3ccc(O)c(OC)c3)[nH]c(=O)n2)ccc1O
GI50: 4.72 µM
TGI: 80.5 µM

S=c1[nH]nc(SCc2ccccc2Cl)c2[nH]cnc12
TGI: > 100 µM

COc1ccccc1N1C(=O)/C(=C\c2cccc(Oc3ccccc3)c2)S(=O)(=O)C1c1ccccc1 (stereo unspecified)
TGI: > 100 µM

CC(=O)NS(=O)(=O)c1ccc(-n2nc(-c3ccccc3)cc2C2=CC(=O)C=CC2=O)cc1
GI50: > 100 µM
TGI: > 100 µM

Cc1ccc2cnc(N)c(C#Cc3cncc(C(=O)Nc4ccc(CN5CCN(C)CC5)c(C(F)(F)F)c4)c3)c2c1
GI50: 0.34 µM
TGI: 0.959 µM

O=C1C(=Cc2ccccc2[N+](=O)[O-])N=C(c2ccccc2)N1n1c(-c2ccccc2)nc2ccccc2c1=O
TGI: > 100 µM

COC(=O)/C(=N/O)C(C(=O)OC)C(=O)C(=O)Nc1c(Cl)cc(C)cc1S(=O)(=O)O (stereo unspecified)
TGI: > 100 µM

c1ccc(-c2cnc3nc4ccccc4nc3n2)cc1
TGI: 20.4 µM

COc1cc2c(cc1O)CC[C@@H]1C2CC[C@@]2(C)C1CC[C@@H]2O (stereo partly specified)
TGI: > 100 µM

Cc1ccc(/C=C2\CN(Cc3cn(CCNc4ccnc5cc(Cl)ccc45)nn3)C/C(=C\c3ccc(C)cc3)C2=O)cc1
GI50: 1.66 µM
TGI: 3.18 µM

O=C(NCCCCNCCCNC(=O)OCc1ccccc1)OCc1ccccc1
TGI: > 100 µM

Cc1cccc(C(O)c2cccnc2)c1O (stereo unspecified)
TGI: > 100 µM

CCCCCCCCCCCCCCC(O)C1CCC(C(O)CCC(O)CCCCCC(O)CC2=CC(C)OC2=O)O1 (stereo unspecified)
TGI: 17.2 µM

COc1cc(CNC(=O)CCSc2nc3ccccc3c(=O)n2Cc2cc(OC)c(OC)c(OC)c2)cc(OC)c1OC
GI50: 23 µM
TGI: > 100 µM

CN1N=Nc2c(C(F)(F)F)nn(-c3ccccc3)c2N(C)C1=O
GI50: > 100 µM
TGI: > 100 µM

O=C(Nc1ccccc1C(=O)Nc1nccs1)c1ccccc1
TGI: > 100 µM

CCCC(=O)Nc1cc(/C=C/C(=O)N2C[C@H]3C[C@@]34C2=CC(=O)c2[nH]cc(C)c24)n(C)c1
TGI: 0.00712 µM

O=C(O)c1cc2c(c3ccsc13)-c1ccccc1CC2
GI50: 23.9 µM
TGI: 77.3 µM

C(#Cc1ccccc1C#Cc1ccccn1)c1ccccn1
GI50: 13.6 µM
TGI: 31.7 µM

Reference: PubChem BioAssay (NCI)
